# Reference: the supplement of paper PMC10037445
# Whole data set: some 2,900 compounds, median “IRF Lucia reporter activity, fold change vs agonist alone” near 0.9, cut for the highest 2% near 2.8. This is one part of the list.
# Assays:
# [1] = system: RAW-Dual; experiment: IRF Lucia reporter activity, fold change vs agonist alone; cytotoxicity flag (confluency mask): not cytotoxic; higher = enhanced IRF activity
# In short: (§1)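 RAW-Dual macrophages (50,000 cells/well in DMEM, 384-well plates) received 50 nL of library stock by pin tool, then a PRR agonist 1 h later, and were kept at 37 °C, 5% CO2. After 20 hours, supernatant was read for IRF by QuantiLuc luminescence and for NF-κB by QuantiBlue absorbance at 620 nm. Reporter activity is fold change over agonist-alone wells. Cytotoxic wells had IncuCyte confluency below 70% of agonist controls in both mask sets.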
# [2] = system: RAW-Dual; experiment: IRF Lucia reporter activity, fold change vs agonist alone; higher = enhanced IRF activity; settings: agonist: MPLA (TLR4) […]
# In short: as §1
# [3] = system: RAW-Dual; experiment: IRF Lucia reporter activity, fold change vs agonist alone; cytotoxicity flag (confluency mask): cytotoxic (confluency <70% of control); higher = enhanced IRF activity
# In short: as §1
# [4] = agonist: 3'3'-cGAMP (STING) 10 ug/mL
# [5] = library stock concentration (final ~1000-fold dilution): 10 mM, cytotoxicity flag (confluency mask): not cytotoxic
# [6] = library stock concentration (final ~1000-fold dilution): 10 mM water, cytotoxicity flag (confluency mask): not cytotoxic
# [7] = library stock concentration (final ~1000-fold dilution): 10 mM, cytotoxicity flag (confluency mask): cytotoxic (confluency <70% of control)
structure (smiles),measurement,setting,value
COc1cc(C2CC(c3ccccc3)=NN2C(N)=S)cc(OC)c1OC (centres undefined) (library stock concentration (final ~1000-fold dilution): 10 mM),IRF Lucia reporter activity,[1]; [4],0.274
same,IRF Lucia reporter activity,[1]; agonist: LPS (TLR4) 0.1 ug/mL,0.807
Cn1cnc(-c2cc3nccc(Oc4ccc(NC(=S)NC(=O)Cc5ccccc5)cc4F)c3s2)c1 (library stock concentration (final ~1000-fold dilution): 10 mM),IRF Lucia reporter activity,[1]; [4],0.257
same,IRF Lucia reporter activity,[1]; agonist: LPS (TLR4) 0.1 ug/mL,0.579
Cn1cnc(-c2cc3nccc(Oc4ccc(NC(=S)NC(=O)Cc5ccccc5)cc4F)c3s2)c1,IRF Lucia reporter activity,[2]; [5],0.567
Cl.Cl.c1cc(-c2cnn3cc(-c4ccc(OCCN5CCCCC5)cc4)cnc23)ccn1,IRF Lucia reporter activity,[2]; [6],1.03
Cl.Cl.c1cc(-c2cnn3cc(-c4ccc(OCCN5CCCCC5)cc4)cnc23)ccn1 (library stock concentration (final ~1000-fold dilution): 10 mM water),IRF Lucia reporter activity,[1]; [4],0.04
same,IRF Lucia reporter activity,[1]; agonist: LPS (TLR4) 0.1 ug/mL,0.171
CCC(=O)N1CCN(c2ccc(-n3c(=O)ccc4cnc5ccc(-c6cnc7ccccc7c6)cc5c43)cc2C(F)(F)F)CC1 (library stock concentration (final ~1000-fold dilution): 2 mM),IRF Lucia reporter activity,[1]; [4],0.336
same,IRF Lucia reporter activity,[1]; agonist: LPS (TLR4) 0.1 ug/mL,0.385
CCC(=O)N1CCN(c2ccc(-n3c(=O)ccc4cnc5ccc(-c6cnc7ccccc7c6)cc5c43)cc2C(F)(F)F)CC1,IRF Lucia reporter activity,"[2]; library stock concentration (final ~1000-fold dilution): 2 mM, cytotoxicity flag (confluency mask): not cytotoxic",1.07
CCNC1(C(N)=O)CCN(c2ncnc3c2nc(-c2ccccc2Cl)n3-c2ccc(Cl)cc2)CC1.Cl (library stock concentration (final ~1000-fold dilution): 2 mM),IRF Lucia reporter activity,[1]; [4],0.911
same,IRF Lucia reporter activity,[1]; agonist: LPS (TLR4) 0.1 ug/mL,0.725
CC(C)NCC(O)COc1ccc(COCCOC(C)C)cc1.O=C(O)/C=C/C(=O)O (centres undefined),IRF Lucia reporter activity,[2]; [5],0.981
CC(C)NCC(O)COc1ccc(COCCOC(C)C)cc1.O=C(O)/C=C/C(=O)O (centres undefined) (library stock concentration (final ~1000-fold dilution): 10 mM),IRF Lucia reporter activity,[1]; [4],1.04
same,IRF Lucia reporter activity,[1]; agonist: LPS (TLR4) 0.1 ug/mL,1.21
O=C(Nc1ccccc1)c1cc([N+](=O)[O-])ccc1Cl,IRF Lucia reporter activity,[2]; [5],1.51
O=C(Nc1ccccc1)c1cc([N+](=O)[O-])ccc1Cl (library stock concentration (final ~1000-fold dilution): 10 mM),IRF Lucia reporter activity,[1]; [4],0.829
same,IRF Lucia reporter activity,[1]; agonist: LPS (TLR4) 0.1 ug/mL,1.44
Cc1onc(-c2ccccc2)c1-c1ccc(S(N)(=O)=O)cc1,IRF Lucia reporter activity,[2]; [5],1.37
Cc1onc(-c2ccccc2)c1-c1ccc(S(N)(=O)=O)cc1 (library stock concentration (final ~1000-fold dilution): 10 mM),IRF Lucia reporter activity,[1]; [4],1.31
same,IRF Lucia reporter activity,[1]; agonist: LPS (TLR4) 0.1 ug/mL,1.17
CC1=C(CC(=O)O)c2cc(F)ccc2/C1=C\c1ccc(S(C)=O)cc1 (centres undefined),IRF Lucia reporter activity,[2]; [5],0.909
CC1=C(CC(=O)O)c2cc(F)ccc2/C1=C\c1ccc(S(C)=O)cc1 (centres undefined) (library stock concentration (final ~1000-fold dilution): 10 mM),IRF Lucia reporter activity,[1]; [4],0.948
same,IRF Lucia reporter activity,[1]; agonist: LPS (TLR4) 0.1 ug/mL,0.822
CCCc1cc(=O)[nH]c(=S)[nH]1,IRF Lucia reporter activity,[2]; [5],0.617
CCCc1cc(=O)[nH]c(=S)[nH]1 (library stock concentration (final ~1000-fold dilution): 10 mM),IRF Lucia reporter activity,[1]; [4],0.718
same,IRF Lucia reporter activity,[1]; agonist: LPS (TLR4) 0.1 ug/mL,0.515
N#Cc1ccc(C2CCc3cncn32)c(F)c1 (centres undefined) (library stock concentration (final ~1000-fold dilution): 10 mM),IRF Lucia reporter activity,[1]; [4],1.17
same,IRF Lucia reporter activity,[1]; agonist: LPS (TLR4) 0.1 ug/mL,1.06
N#Cc1ccc(C2CCc3cncn32)c(F)c1 (centres undefined),IRF Lucia reporter activity,[2]; [5],1.06
C=CC(=O)Nc1cccc(C)c1Nc1ncc2cc(-c3c(Cl)c(OC)cc(OC)c3Cl)ccc2n1 (library stock concentration (final ~1000-fold dilution): 2 mM),IRF Lucia reporter activity,[1]; [4],0.323
same,IRF Lucia reporter activity,[1]; agonist: LPS (TLR4) 0.1 ug/mL,1.1
CN1CCN(CC(=O)N2c3ccccc3C(=O)Nc3cccnc32)CC1.Cl.Cl (library stock concentration (final ~1000-fold dilution): 10 mM water),IRF Lucia reporter activity,[1]; [4],1.36
same,IRF Lucia reporter activity,[1]; agonist: LPS (TLR4) 0.1 ug/mL,0.913
CN1CCN(CC(=O)N2c3ccccc3C(=O)Nc3cccnc32)CC1.Cl.Cl,IRF Lucia reporter activity,[2]; [6],1.27
CN1CCN(Cc2ccc(NC(=O)Cc3ccc(Oc4cc(NC(=O)C5CC5)ncn4)cc3)cc2C(F)(F)F)CC1,IRF Lucia reporter activity,[2]; [7],0.601
CN1CCN(Cc2ccc(NC(=O)Cc3ccc(Oc4cc(NC(=O)C5CC5)ncn4)cc3)cc2C(F)(F)F)CC1 (library stock concentration (final ~1000-fold dilution): 10 mM),IRF Lucia reporter activity,[3]; [4],0.00771
same,IRF Lucia reporter activity,[3]; agonist: LPS (TLR4) 0.1 ug/mL,0.00669
CN(C)CCC(c1ccc(Br)cc1)c1ccccn1.O=C(O)/C=C\C(=O)O (centres undefined) (library stock concentration (final ~1000-fold dilution): 10 mM),IRF Lucia reporter activity,[1]; [4],0.857
same,IRF Lucia reporter activity,[1]; agonist: LPS (TLR4) 0.1 ug/mL,0.812
CN(C)CCC(c1ccc(Br)cc1)c1ccccn1.O=C(O)/C=C\C(=O)O (centres undefined),IRF Lucia reporter activity,[2]; [5],0.907
COc1cc(-c2cn(C)c(=O)c3cnccc23)cc(OC)c1CN(C)C (library stock concentration (final ~1000-fold dilution): 10 mM),IRF Lucia reporter activity,[1]; [4],0.838
same,IRF Lucia reporter activity,[1]; agonist: LPS (TLR4) 0.1 ug/mL,0.835
Oc1ncnc2[nH]ncc12,IRF Lucia reporter activity,[2]; [5],0.959
Oc1ncnc2[nH]ncc12 (library stock concentration (final ~1000-fold dilution): 10 mM),IRF Lucia reporter activity,[1]; [4],1.11
same,IRF Lucia reporter activity,[1]; agonist: LPS (TLR4) 0.1 ug/mL,0.82
COc1ccccc1C(=O)Nc1cc2c(cc1N1CCCC1)n(C)c(=O)n2C (library stock concentration (final ~1000-fold dilution): 10 mM),IRF Lucia reporter activity,[1]; [4],0.501
same,IRF Lucia reporter activity,[1]; agonist: LPS (TLR4) 0.1 ug/mL,0.893
CC(NC(=Nc1cccc2ncccc12)NC#N)c1ccccc1 (centres undefined) (library stock concentration (final ~1000-fold dilution): 10 mM),IRF Lucia reporter activity,[1]; [4],0.7
same,IRF Lucia reporter activity,[1]; agonist: LPS (TLR4) 0.1 ug/mL,0.936
COCCOc1cc(F)c2c(Nc3ccc(NC(=O)Cn4cc(C(C)C)nn4)cc3)ncnc2c1 (library stock concentration (final ~1000-fold dilution): 10 mM),IRF Lucia reporter activity,[1]; [4],1.06
same,IRF Lucia reporter activity,[1]; agonist: LPS (TLR4) 0.1 ug/mL,0.818
CCN1CCN(Cc2ccc(Nc3ncc(F)c(-c4cc(F)c5nc(C)n(C(C)C)c5c4)n3)nc2)CC1.CS(=O)(=O)O,IRF Lucia reporter activity,[2]; [5],0.137
CCN1CCN(Cc2ccc(Nc3ncc(F)c(-c4cc(F)c5nc(C)n(C(C)C)c5c4)n3)nc2)CC1.CS(=O)(=O)O (library stock concentration (final ~1000-fold dilution): 10 mM),IRF Lucia reporter activity,[1]; [4],0.0486
same,IRF Lucia reporter activity,[1]; agonist: LPS (TLR4) 0.1 ug/mL,0.119
CCc1ccc(OCc2ccccc2C(=O)Nc2ccc3nc(C)cc(N)c3c2)cc1.Cl (library stock concentration (final ~1000-fold dilution): 10 mM),IRF Lucia reporter activity,[3]; [4],0.0191
same,IRF Lucia reporter activity,[3]; agonist: LPS (TLR4) 0.1 ug/mL,0.0171
CCc1ccc(OCc2ccccc2C(=O)Nc2ccc3nc(C)cc(N)c3c2)cc1.Cl,IRF Lucia reporter activity,[2]; [7],0.021
Cc1cc(=O)oc2c(C=O)c(O)ccc12 (library stock concentration (final ~1000-fold dilution): 10 mM),IRF Lucia reporter activity,[1]; [4],0.787
same,IRF Lucia reporter activity,[1]; agonist: LPS (TLR4) 0.1 ug/mL,0.266
Cc1cc(=O)oc2c(C=O)c(O)ccc12,IRF Lucia reporter activity,[2]; [5],0.744
O=C(O)CSc1nnc(Br)n1-c1ccc(C2CC2)c2ccccc12 (library stock concentration (final ~1000-fold dilution): 10 mM),IRF Lucia reporter activity,[1]; [4],1.05
same,IRF Lucia reporter activity,[1]; agonist: LPS (TLR4) 0.1 ug/mL,1.28
O=C(O)CSc1nnc(Br)n1-c1ccc(C2CC2)c2ccccc12,IRF Lucia reporter activity,[2]; [5],1
O=C(NO)c1cnc(NC2(c3ccccc3)CC2)nc1 (library stock concentration (final ~1000-fold dilution): 10 mM),IRF Lucia reporter activity,[3]; [4],0.0943
same,IRF Lucia reporter activity,[3]; agonist: LPS (TLR4) 0.1 ug/mL,0.24
COc1ccc(C(=C2C(=O)Nc3ccccc32)c2ccc(OC)cc2)cc1,IRF Lucia reporter activity,[2]; [5],1.41
COc1ccc(C(=C2C(=O)Nc3ccccc32)c2ccc(OC)cc2)cc1 (library stock concentration (final ~1000-fold dilution): 10 mM),IRF Lucia reporter activity,[1]; [4],0.892
same,IRF Lucia reporter activity,[1]; agonist: LPS (TLR4) 0.1 ug/mL,1.05
CCCN(CCC)S(=O)(=O)c1ccc(C(=O)O)cc1 (library stock concentration (final ~1000-fold dilution): 10 mM),IRF Lucia reporter activity,[1]; [4],1.14
same,IRF Lucia reporter activity,[1]; agonist: LPS (TLR4) 0.1 ug/mL,1.35
CCCN(CCC)S(=O)(=O)c1ccc(C(=O)O)cc1,IRF Lucia reporter activity,[2]; [5],1.19
Cl.NC(=O)c1cnc(NC2CCCCC2N)nc1Nc1cccc(-n2nccn2)c1 (centres undefined) (library stock concentration (final ~1000-fold dilution): 10 mM),IRF Lucia reporter activity,[3]; [4],0.0603
same,IRF Lucia reporter activity,[3]; agonist: LPS (TLR4) 0.1 ug/mL,0.0176
O=c1[nH]c(=S)[nH]c(-c2ccccc2)c1Cc1c(O)ccc2ccccc12,IRF Lucia reporter activity,[2]; [5],0.949
O=c1[nH]c(=S)[nH]c(-c2ccccc2)c1Cc1c(O)ccc2ccccc12 (library stock concentration (final ~1000-fold dilution): 10 mM),IRF Lucia reporter activity,[1]; [4],0.689
same,IRF Lucia reporter activity,[1]; agonist: LPS (TLR4) 0.1 ug/mL,0.798
CCCC(CCC)C(N)=O (library stock concentration (final ~1000-fold dilution): 10 mM),IRF Lucia reporter activity,[1]; [4],0.954
same,IRF Lucia reporter activity,[1]; agonist: LPS (TLR4) 0.1 ug/mL,1.33
CCCC(CCC)C(N)=O,IRF Lucia reporter activity,[2]; [5],1.04
CC(NC(=O)Cc1cc(F)cc(F)c1)C(=O)NC(C(=O)OC(C)(C)C)c1ccccc1 (centres undefined),IRF Lucia reporter activity,[2]; [5],1.21
CC(NC(=O)Cc1cc(F)cc(F)c1)C(=O)NC(C(=O)OC(C)(C)C)c1ccccc1 (centres undefined) (library stock concentration (final ~1000-fold dilution): 10 mM),IRF Lucia reporter activity,[1]; [4],0.378
same,IRF Lucia reporter activity,[1]; agonist: LPS (TLR4) 0.1 ug/mL,1.03
O=C(O)c1cc2ccccc2c(Cc2c(O)c(C(=O)O)cc3ccccc23)c1O.OCCOCCN1CCN(C(c2ccccc2)c2ccc(Cl)cc2)CC1 (library stock concentration (final ~1000-fold dilution): 10 mM),IRF Lucia reporter activity,[1]; [4],0.385
same,IRF Lucia reporter activity,[1]; agonist: LPS (TLR4) 0.1 ug/mL,0.363
O=C(O)c1cc2ccccc2c(Cc2c(O)c(C(=O)O)cc3ccccc23)c1O.OCCOCCN1CCN(C(c2ccccc2)c2ccc(Cl)cc2)CC1,IRF Lucia reporter activity,[2]; [5],0.55
CC1CC2C3CCC4=CC(=O)C=CC4(C)C3(F)C(O)CC2(C)C1(O)C(=O)CO (centres undefined) (library stock concentration (final ~1000-fold dilution): 1 mM),IRF Lucia reporter activity,[1]; [4],0.589
same,IRF Lucia reporter activity,[1]; agonist: LPS (TLR4) 0.1 ug/mL,0.615
